This is an account of results in ChEMBL document CHEMBL4888484, “Replenishing the malaria drug discovery pipeline: Screening and hit evaluation of the MMV Hit Generation Library 1 (HGL1) against asexual blood stage Plasmodium falciparum ,using a nano luciferase reporter read-out” (2022).

The whole screen tested about 150,000 compounds, of which about 540 (0.36%) showed an effect of 50% or more. This is one part of the list.

The % Inhibition is the relative decrease from the control value, in per cent.

The subject of this assay is Plasmodium falciparum. Description: Primary screen in NF54 nanoGlo assay, in single point, at 2uM, 72h; a lower Z score goes with more inhibition. To be noted: timepoint 72 hour. The format is functional, Erythrocyte.
For `CC(C)(C)NCC(=O)Nc1ccc(F)cc1`, the “% Inhibition” value is 1% and the Z score was -0.18.
Turning to `CN(CC(=O)Nc1sc2c(c1C#N)CCCC2)S(=O)(=O)c1ccccc1`, the “% Inhibition” value was -9% and the Z score came to 1.01.
Take `O=C(c1ccc(F)cc1)N1CCN=C1c1ccccc1`: the “% Inhibition” value is -11% and the Z score is given as 1.39.
For the molecule `Cc1nc(CNC(C)C2CCCO2)no1` (stereo not drawn), the “% Inhibition” value is recorded as -6% and the Z score is on record as 0.88.
On the same counts, the results for `O=S(=O)(/N=C(/N1CCOCC1)C(Cl)(Cl)Cl)c1ccccc1` are -3% and 0.42.
`CCC[C@@]1(C)C(=O)NCCN1C(=O)c1cscn1`: the “% Inhibition” value amounted to 1% and the Z score is recorded as -0.24.
On the same counts, the results for `NS(=O)(=O)c1cccc(NC(=O)CCC(=O)c2ccc3c(c2)OCCO3)c1` are -18% and 2.91.
On to `COCCN1CCC(CN(Cc2ccncc2)Cc2cc(C)c(C)o2)CC1`, for which the “% Inhibition” value was -30% and the Z score is 4.08.
As for `CC(CNC(=O)C1C2CCCC21)c1nc2ccccc2s1` (stereo not drawn), the “% Inhibition” value is -17% and the Z score was found to be 2.06.
With `CCOc1ccc2c(c1)C(=C1SC(C(=O)OC)=C(C(=O)OC)S1)C(=S)C(C)(C)N2C(=O)CN1C(=O)CCC1=O`, the “% Inhibition” value is -13% and the Z score turned out to be 1.49.
For the molecule `CC(C)(C)OC(=O)NCCc1nnc(N)o1`, the “% Inhibition” value was -1% and the Z score is listed as 0.18.
`COCCC(=O)Nc1cc(C(F)(F)F)ccc1Br`: the “% Inhibition” value is recorded as -4% and the Z score is listed as 0.46.
With `NC(=O)c1cccc(NC(=O)CCC2CCCCC2)n1`, the “% Inhibition” value is -17% and the Z score came out at 3.15.
Turning to `CC(NC(=O)c1ccc(S(=O)(=O)N2CCCCCC2)cc1)C1CC2CCC1C2` (stereo not drawn), the “% Inhibition” value stood at 7% and the Z score is given as -0.71.
For `C[C@@H](CCC(=O)N1CCc2nocc2C1)N1CCOCC1`, the “% Inhibition” value was -7% and the Z score is on record as 0.95.
For the molecule `COCC1(O)CCN(C(=O)N[C@H](C)c2cc(C)ccc2OC)CC1`, the “% Inhibition” value is given as -3% and the Z score was 0.4.
On to `CN(C(=O)[C@@H]1C[C@H]1C(=O)N(C)C1(C#N)CCC1)C1(C#N)CCC1`, for which the “% Inhibition” value is on record as -6% and the Z score stood at 1.04.
With `COc1cc(C(=O)NCCN(C)C)cc(OC)c1OC`, the “% Inhibition” value was -6% and the Z score is on record as 1.13.
For `COc1ccc(CN(CC(C)C)CC(C)(C)C)nc1`, the “% Inhibition” value is -8% and the Z score worked out at 1.01.
As for `Cc1nc2nnnn2c(C)c1C/C=C/c1ccccc1`, the “% Inhibition” value was 31% and the Z score was -0.74.
Turning to `Cc1ccc(N(C)C(=O)c2cccn2Cc2noc(C3CC3)n2)cc1`, the “% Inhibition” value worked out at 0% and the Z score is listed as 0.07.
On to `O=C1COCC(CC2CN(c3ncnc4sccc34)c3ccccc32)N1` (stereo not drawn), for which the “% Inhibition” value worked out at 12% and the Z score is reported as -1.66.
As to `COc1ccc(CNC(=O)Cc2nnc(-c3ccc4ncccc4c3)o2)cc1`, the “% Inhibition” value is listed as 0% and the Z score is given as -0.03.
On the same counts, the results for `O=C1CCCc2c1[nH]c1cc(-n3ccnc3[C@H]3CCOC3)ccc21` are -2% and 0.39.
With `CC(=O)N/C(=N\OCc1ccc(F)cc1)c1nonc1NC(C)=O`, the “% Inhibition” value came out at 29% and the Z score was -3.24.
On the same counts, the results for `CC(C)(Oc1ccc(Cl)cc1)C(=O)Nc1c2c(nn1C(C)(C)C)CS(=O)(=O)C2` are -14% and 2.68.
On the same counts, the results for `Cc1cc(C(=O)NCC2CCN(Cc3ccoc3)CC2)no1` are -11% and 1.11.
On the same counts, the results for `O=C(NCCCN1CCOCC1)c1cnc(-c2ccc3c(c2)OCO3)nc1Nc1ccccc1F` are 5% and -0.57.
For the molecule `C[C@H]1[C@@H]2[C@@H](O)C([C@H](C)C(=O)NC3CCCCC3)CC[C@@]2(C)CC[C@@H]1NC(=O)CC(C)(C)C` (stereo partly drawn), the “% Inhibition” value was found to be 69% and the Z score is given as -5.14.
For the molecule `Cc1nccc(N2CCN(C)[C@]3(CCC(=O)N(CC4CC4)CC3)C2)n1`, the “% Inhibition” value is recorded as -13% and the Z score turned out to be 1.3.
With `Cc1nc(Cn2cc(C(N)=O)nc2C2CC2)sc1C`, the “% Inhibition” value is recorded as -11% and the Z score came out at 1.31.
On the same counts, the results for `CN(Cc1nccn1CC(F)(F)F)c1cc(N2CCC[C@@H]2CO)ncn1` are -7% and 1.01.
Consider `C[C@@H]1Oc2ccc(NC(=O)C3=NN(C)C(=O)CC3)cc2NC1=O`, for which the “% Inhibition” value is given as -4% and the Z score is 0.59.
In the case of `COc1ccc(C(=O)N[C@@H](C)CC(C)(C)O)c(C)c1`, the “% Inhibition” value is given as -4% and the Z score was 0.5.
As to `Cc1ccc(NC(=O)CC(=O)NCc2nnc3n2CCC3)c(C)c1`, the “% Inhibition” value was -11% and the Z score is given as 1.41.
Take `Cc1cc(C)cc(Nc2c3c(nc4ncnn24)CCCC3)c1`: the “% Inhibition” value is listed as -17% and the Z score was 1.56.
For `Cc1cnc(C[C@H]2CCCN(C(=O)C3CCCC3)C2)n1C(C)C`, the “% Inhibition” value came out at 8% and the Z score is given as -1.27.
On the same counts, the results for `CCC[C@H](Nc1nc(-c2ccccn2)nc2c1CCNC2)c1nccn1C` are -4% and 0.62.
As to `COc1ccccc1[C@@H](NC1CCOCC1)c1ccco1`, the “% Inhibition” value is given as -6% and the Z score is 0.81.
As for `C[C@](N)(CO)c1cc(Cl)cc(Cl)c1`, the “% Inhibition” value was 3% and the Z score is -0.42.
On to `C[C@@H]1CN(C(=O)C(C)(C)Cc2cccc(Cl)c2)C[C@H]1CO`, for which the “% Inhibition” value is reported as -11% and the Z score was found to be 1.6.
For `CC(C)(O)C1CN(C(=O)Nc2ccccc2CN2CCc3ccccc32)C1`, the “% Inhibition” value is reported as 28% and the Z score was -3.17.
Consider `CC(=O)N1CCN(C(=O)CC(C)C)CC[C@H]1c1nc(C)no1`, for which the “% Inhibition” value is reported as -10% and the Z score stood at 1.61.
With `COc1ccc(-c2noc(N3CCN(c4cccc(OC)c4)CC3)n2)cc1`, the “% Inhibition” value is on record as -5% and the Z score worked out at 0.66.
Turning to `COCCN1C(=O)N(C)C(=O)[C@@]12CCN(Cc1cccc(OC)c1)C2`, the “% Inhibition” value turned out to be 0% and the Z score is -0.05.
On to `O=C(c1ccccn1)N1CCc2cc(S(=O)(=O)NC3CCCC3)ccc21`, for which the “% Inhibition” value is given as -17% and the Z score is on record as 1.58.
As for `CCn1cc(CNC(=O)[C@@H]2CCCN2C(=O)OC(C)(C)C)cn1`, the “% Inhibition” value was -11% and the Z score is on record as 0.89.
With `Cc1ccc(N2C(=O)C3ON=C(c4cccnc4)C3C2=O)c(C)c1` (stereo not drawn), the “% Inhibition” value is -8% and the Z score is on record as 0.95.
As to `COc1ccc(-c2nccn3cc(C(=O)NCCc4ccccn4)nc23)cc1`, the “% Inhibition” value is listed as 32% and the Z score is -3.64.
For `Cc1csc(S(=O)(=O)N2C[C@H](CO)[C@@H](CO)C2)c1`, the “% Inhibition” value was determined as 1% and the Z score is -0.1.
As for `CN1C[C@H]2CC[C@@H](C1)N(C(=O)c1cc3cccc(Cl)c3n1C)C2`, the “% Inhibition” value is -5% and the Z score is given as 0.61.
On the same counts, the results for `Cc1nn(-c2ccccc2)c(N2CCN(C)CC2)c1CN(CCC(C)C)C(=O)c1ccc(C(C)(C)C)cc1` are -10% and 0.89.
On the same counts, the results for `Cc1cc(C)c(C#N)c(NCC(F)(F)CN)n1` are -7% and 0.92.
As for `O=C(NCc1c(Cl)cccc1-n1ccnc1)NC(=O)c1cccc(C(F)(F)F)c1`, the “% Inhibition” value is listed as -12% and the Z score was 1.35.
For `COc1ccc(-c2ccc3c(c2)CCOC3)cc1C1(C#N)CC1`, the “% Inhibition” value is reported as -12% and the Z score is 2.16.
Take `Cc1cccc(NC(=O)CN(CC(N)=O)C2CCCC2)c1`: the “% Inhibition” value is -2% and the Z score stood at 0.21.
As to `Cc1cc(C#N)cc(C)c1OCCCC(C)(C)C#N`, the “% Inhibition” value amounted to 4% and the Z score was -0.51.
Regarding `COC[C@H](C)C(=O)NS(=O)(=O)c1cc(S(=O)(=O)N(C)C)ccc1Cl`, the “% Inhibition” value is listed as -27% and the Z score stood at 3.17.
On the same counts, the results for `Cc1nn(C)cc1[C@H]1OCC[C@@H]1NC(=O)NCCc1cccc(C(F)(F)F)n1` are -9% and 1.44.
`Cc1nc(CN(C)CC2(CO)CCOCC2)no1`: the “% Inhibition” value was -12% and the Z score is given as 1.65.
Turning to `CCn1cc(NC(=O)N[C@@H](C)C2=CCCCC2)c(C)n1`, the “% Inhibition” value is -12% and the Z score is reported as 1.44.
On to `O=S(=O)(c1cccs1)N1CCC[C@H](c2nc(-c3ccccc3)c[nH]2)C1`, for which the “% Inhibition” value came out at 3% and the Z score was -0.44.
On the same counts, the results for `COCC[C@]1(NC(=O)Nc2cccc(C)c2)CCN(C(=O)COc2ccc(OC)cc2)C1` are -6% and 0.85.
For `Cc1ccc(-c2nc(-c3cc4c(C)nn(-c5ccccc5)c4s3)no2)s1`, the “% Inhibition” value was found to be 20% and the Z score is listed as -2.33.
As for `Cc1noc(C2(NC(=O)Nc3cnc4c(c3)COCC4)CCOCC2)n1`, the “% Inhibition” value is reported as -7% and the Z score was 1.1.
On the same counts, the results for `Cc1nc(CCNC(=O)Nc2ccccc2-c2ccccc2)c(C)o1` are -2% and 0.22.
Regarding `COc1ccc(CCc2nc(-c3cnn(C)c3)no2)cc1`, the “% Inhibition” value is -4% and the Z score is listed as 0.59.
`O=C(C1CCC1)N(Cc1nccn1Cc1cccc(Cl)c1)C1CCCCC1`: the “% Inhibition” value is given as -3% and the Z score stood at 0.29.
Take `Cn1cnnc1CNC1CC(c2ccccc2)C1(C)C` (stereo not drawn): the “% Inhibition” value is -10% and the Z score is 1.56.
Consider `CC[C@@H](C(=O)N1CCc2nc(N3CCN(C4CCCCC4)CC3)nc(N(C)C)c2C1)c1ccccc1`, for which the “% Inhibition” value is on record as -5% and the Z score was 0.94.
On the same counts, the results for `CCC(C)NC(=O)C1CCN(c2ccc(F)c(Cl)c2)C1=O` (stereo not drawn) are -14% and 1.68.
As to `CC(C)n1cc2c(n1)C[C@@H](NC(=O)c1ccccc1N(C)C)CC2`, the “% Inhibition” value is reported as 4% and the Z score is given as -0.77.
Consider `O=C(c1cn(C2CCC2)nn1)N1CCc2c(cnn2-c2ccccc2)C1`, for which the “% Inhibition” value is 1% and the Z score was -0.17.
On the same counts, the results for `CC1CN(c2cccc(F)c2)CCN1C(=O)CC1CCCS(=O)(=O)C1` (stereo not drawn) are -8% and 1.09.
On the same counts, the results for `CC(C)S(=O)(=O)NC[C@H](Cc1cccc(F)c1)N1CCCC1=O` are -11% and 1.25.
Turning to `Cc1cc([C@]2(C)NC(=O)N(CC(=O)Nc3c(C)cccc3C)C2=O)c(C)o1`, the “% Inhibition” value was -9% and the Z score worked out at 1.03.
As for `CCOCC(=O)Nc1cccc2c1OCCN2C(=O)COCC`, the “% Inhibition” value was -14% and the Z score was 1.45.
With `Cc1ccccc1-c1ncc(CN2C[C@H](O)[C@@H](N3CCCCC3)C2)cn1`, the “% Inhibition” value was -4% and the Z score is given as 0.8.
As for `CCOc1ccc(CNCCn2cnc(C)c2C)cn1`, the “% Inhibition” value is -7% and the Z score was 0.72.
In the case of `COCCN1C(=O)N[C@@](Cc2ccccc2Cl)(C2CCN(C(=O)c3cccs3)CC2)C1=O`, the “% Inhibition” value is -5% and the Z score is listed as 0.72.
As to `CC[C@H]1COCCN1C(=O)c1ccc2c(=O)n(C)cnc2c1`, the “% Inhibition” value is -8% and the Z score is 1.58.
Regarding `CCC1(CC)C(NC(=O)Nc2ncncc2OC)CC1OC` (stereo not drawn), the “% Inhibition” value is recorded as -13% and the Z score was 1.95.
`c1ncc2c(n1)CN(Cc1ccc3c(c1)OCCO3)CC2`: the “% Inhibition” value is reported as 4% and the Z score is listed as -0.61.
Turning to `COC[C@H]1CN(C(C)=O)CC12CCN(Cc1ccc(Cl)c(F)c1)CC2`, the “% Inhibition” value is recorded as 7% and the Z score is -0.77.
